Reference: PubChem BioAssay AID686979 (National Center for Advancing Translational Sciences (NCATS), 2013)
Values joined by “and” are separate entries in the source; they are usually repeats but may differ in a detail not shown here. Equal values may be shown once. The campaign covered roughly 420,000 compounds. About 50,000 (12%) were called active. The inconclusive results got no clear call from the source; some entries with a clear call stand among them for comparison. The call rests on the fitted dose curve; in most records, active means well fitted inhibition curve with a large enough effect; inconclusive means small, poorly fitted or top-dose-only effect; inactive means flat fitted curve, though single readings scatter. A potency beside an inconclusive call is a rough fit, not a confirmed value.

assay: qHTS for Inhibitors of human tyrosyl-DNA phosphodiesterase 1 (TDP1): qHTS in cells in presence of CPT; conditions: chicken DT40 Tdp1-/-;hTDP1 cells + 20 nM CPT, ATP luminescence, 48 h; activity change, negative = growth inhibition: at 46.2 µM (top of the series) unless noted; further: nearly all actives have a fitted effect of over 55% in size
How it was run: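 Cell growth measured by CellTiter-Glo luminescence after a minimum 48 h, 37 C compound exposure with 20 nM CPT in Tdp1-knockout DT40 cells stably expressing hTDP1, seeded 400/well; qHTS titration format.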
On the % scale 0 is the no-effect control and ±100 the full control effect; potency means the concentration at half of the fitted maximal effect; tags describe the fitted curve by direction and shape.

| SMILES | Potency | activity change, negative = growth inhibition |
| --- | --- | --- |
| COc1ccc(-c2nc3c4ccccc4ccn3c2CN2CCCCC2)cc1 | inconclusive: 25.9 µM [inhibitor, single point] | – |
| COC(=O)c1ccc(C(=O)OC)c(NC(=O)CN(C)Cc2cccc(Cl)c2Cl)c1 | inconclusive: 20.6 µM [inhibitor, single point] | – |
| O=C(COC(=O)/C=C/c1ccco1)NC1CCCCC1 | – | inactive: -26.2% |
| CCOC(=O)c1ccccc1NS(=O)(=O)c1ccc(C)cc1 | inconclusive: 20.6 µM [inhibitor, single point] | – |
| CC(OC(=O)CCc1nc2ccccc2[nH]c1=O)C(=O)c1ccccc1 (stereo not drawn) | – | inconclusive: -30.9% [inhibitor] |
| CCOC(=O)c1ccc(Nc2nc3nonc3nc2Nc2cccc(C)c2C)cc1 | active: 2.59 µM | – |
| COc1cccc(CN2C(=O)NC(C)(C3CCN(Cc4ccc(C)o4)CC3)C2=O)c1OC (stereo not drawn) | – | inactive: -4.51% |
| COc1ccccc1N1CCN(Cc2cc(=O)c(OCC(=O)NC(C)C)co2)CC1 | inconclusive: 20.6 µM [inhibitor, single point] | – |
| Cn1c(NC(=O)C[n+]2cc(-c3ccc(Cl)c(Cl)c3)n3c2CCC3)cc(=O)n(C)c1=O | – | inactive: -17.5% |
| CCOc1ccccc1NC(=O)c1cc(S(=O)(=O)NC2CCCC2)ccc1F | – | inactive: -19% |
| CC(C)(C)CNC(=O)C1(C)CCN1C(=O)Cc1ccc(-c2ccccc2)cc1 (stereo not drawn) | active: 23.1 µM | – |
| C[C@]12C=CC(=O)C=C1CC[C@@H]1[C@@H]2[C@@H](O)C[C@@]2(C)[C@H]1CC[C@]2(O)C(=O)CO | inconclusive: 29.9 µM [inhibitor, partial curve, poor fit] and inconclusive: 7.31 µM [inhibitor, partial curve] | – |
| CC(=O)NC1C(=O)N(CC(C)C)c2ccccc21 (stereo not drawn) | – | inactive: -0.516% |
| COc1cccc(-c2cnc(NCc3ccccc3Cl)n2C)c1 | inconclusive: 18.4 µM [inhibitor, single point] | – |
| COc1ccc(-n2nnnc2/C=C\Nc2ccccc2C(=O)c2ccccc2)cc1 | active: 7.31 µM | – |
| COc1cc(/C=C/C(=O)OCC(=O)Nc2ccc3c(c2)OCCO3)ccc1O | inconclusive: 14.6 µM [inhibitor, partial curve] | – |
| O=C(NCc1ccco1)c1cccc2c1C(=O)c1ccc(/C=C/c3ccccc3)cc1S2(=O)=O | inconclusive: 16.4 µM [inhibitor, single point] | – |
| Oc1ccccc1N=Nc1nc(-c2ccccc2)c(-c2ccccc2)[nH]1 | active: 2.59 µM | – |
| COc1ccc(Cc2nnc(SCC(=O)N3CCN(c4ccccc4)CC3)o2)cc1 | active: 23.1 µM | – |
| CN1OC[C@@H]2CN(C(=O)NC3CCCCC3)[C@H](c3ccc(N4CCCCC4)cc3)C[C@@H]21 | – | inactive: 0.801% |
| Cc1c(C(=O)NCC2(N3CCOCC3)CCCCCC2)cnn1-c1nccc(-c2ccccc2F)n1 | inconclusive: 23.1 µM [inhibitor, single point] | – |
| NC(N)=Nc1nc(C2COc3ccccc3O2)cs1 (stereo not drawn) | inconclusive: 29.1 µM [inhibitor, single point] | – |

| SMILES | Potency | activity change, negative = growth inhibition |
| --- | --- | --- |
| Cc1cccc(CN2CCc3c(OCC(=O)NCc4ccco4)cccc3C2=O)c1 | inconclusive: 29.1 µM [inhibitor, single point] | – |
| CC1Cc2ccccc2N1C(=O)c1cc2sccc2n1Cc1ccccc1 (stereo not drawn) | inconclusive: 29.1 µM [inhibitor, single point] | – |
| CCOc1ccc2nc(N3CCC(C(=O)Nc4c(C)cccc4C)CC3)sc2c1 | inconclusive: 25.9 µM [inhibitor, single point] | – |
| Cc1ccccc1C(=O)Nc1nnc(CC(=O)N/N=C/c2ccco2)s1 | – | inactive: -2.79% |
| COc1ccc(CNc2nc(-c3cccnc3)nc3ccccc23)c(OC)c1 | inconclusive: 18.4 µM [inhibitor, single point] | – |
| CCCCN1C(=O)CC(SC2CC(=O)N(CCCC)C2=O)C1=O (stereo not drawn) | active: 16.4 µM | – |
| O=C(Nc1ccccc1)N1CCCN(c2ccc(C(F)(F)F)cn2)CC1 | inconclusive: 29.1 µM [inhibitor, single point] | – |
| CC1CCCCN1C(=S)Nc1ccc(S(=O)(=O)N2CCCCC2)cc1 (stereo not drawn) | inconclusive: 14.6 µM [inhibitor, partial curve] | – |
| Cc1onc(-c2ccccc2Cl)c1C(=O)OCC(=O)Nc1cccc(S(=O)(=O)N(C)C)c1 | inconclusive: 25.9 µM [inhibitor, partial curve] | – |
| O=C(NCc1ccccc1)C12CC3CC(CC(C3)C1)C2 | – | inactive: -2.2% |
| CCCn1c(SCC(=O)c2c(C)[nH]c(C)c2C(=O)OCC)nc2ccccc21 | active: 16.4 µM | – |
| Cc1ccc(-c2nc3cccnc3o2)cc1NC(=O)COc1ccc(Cl)cc1C | inconclusive: 10.3 µM [inhibitor, partial curve, poor fit] | – |
| Cc1ccc(S(=O)(=O)N2CCN(c3nc(-c4cccs4)nc4ccccc34)CC2)cc1 | inactive and inconclusive: 12.6 µM [inhibitor, single point] and inconclusive: 7.08 µM [inhibitor, full curve, poor fit] | – |
| CC(C)(CNC(=O)c1cccc(NS(=O)(=O)c2ccc(Br)cc2)c1)N1CCOCC1 | – | inactive: -0.662% |
| Cc1ccc(/C=C(\NC(=O)c2ccccc2)C(=O)NCC2CCCO2)o1 (stereo not drawn) | – | inactive: 8.13% |
| Oc1ccc(Cl)cc1C1=NNC(c2cc(Br)cc3c2OCOC3)C1 (stereo not drawn) | inconclusive: 18.4 µM [inhibitor, single point] | – |
| Cc1cccc(N2C(=O)c3cccc4c(N(C)CCO)ccc(c34)C2=O)c1 | inconclusive: 10.3 µM [inhibitor, partial curve, poor fit] | – |
| CSc1ccc(CN2CCC2(C)C(=O)NCc2ccccc2Br)cc1 (stereo not drawn) | active: 18.4 µM | – |
| COc1ccccc1CCNC(=O)Cn1c(=O)oc2ccccc21 | active: 20.6 µM | – |
| COc1ccc2cc(CN(CC3CCCO3)S(=O)(=O)c3ccccc3Cl)c(=O)[nH]c2c1 (stereo not drawn) | inconclusive: 29.1 µM [inhibitor, single point] | – |
| CC(C)CNC(=O)C1(C)CCCN1Cc1ccc(OC(F)(F)F)cc1 (stereo not drawn) | inconclusive: 29.1 µM [inhibitor, single point] | – |
